Laboratory results as given in patent US20230038638A1.
Positions count from the first letter of the chain named. In names and notes the source's numbering stands. Values belong to the binder of their own block, whether it stands above or below them.

Legend:
[1] = molecular target: T1, human C4b (human) (UniProt P0C0L4)
T1 sequence: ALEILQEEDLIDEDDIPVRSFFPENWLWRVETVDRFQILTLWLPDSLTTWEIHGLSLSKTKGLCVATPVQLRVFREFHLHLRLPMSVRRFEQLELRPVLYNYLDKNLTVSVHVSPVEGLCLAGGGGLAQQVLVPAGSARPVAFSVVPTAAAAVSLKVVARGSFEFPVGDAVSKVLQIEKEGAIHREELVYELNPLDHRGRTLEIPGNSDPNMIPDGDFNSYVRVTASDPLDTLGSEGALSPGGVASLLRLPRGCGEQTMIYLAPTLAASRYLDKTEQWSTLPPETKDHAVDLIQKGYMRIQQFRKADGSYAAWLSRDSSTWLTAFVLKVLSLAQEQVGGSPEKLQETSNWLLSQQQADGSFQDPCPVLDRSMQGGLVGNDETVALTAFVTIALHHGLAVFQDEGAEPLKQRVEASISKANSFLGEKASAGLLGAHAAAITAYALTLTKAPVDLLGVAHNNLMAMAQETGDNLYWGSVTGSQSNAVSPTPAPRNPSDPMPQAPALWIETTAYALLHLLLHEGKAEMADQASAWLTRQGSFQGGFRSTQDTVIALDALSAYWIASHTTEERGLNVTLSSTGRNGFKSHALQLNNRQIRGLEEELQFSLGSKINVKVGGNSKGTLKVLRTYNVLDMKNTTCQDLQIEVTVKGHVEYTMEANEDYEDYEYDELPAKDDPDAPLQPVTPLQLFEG

[2] = molecular target: soluble human C3b (human) (UniProt P01024)
[3] = molecular target: T2, human C4b (human) (UniProt P0C0L5)
T2 sequence: T1 sequence with A151T, D317G, P364L, C365S, L368I, D369H, N420S, V451A, L454R, S530A

B1: CFI-HSA WT; … (SEQ ID NO: 26); CCP_2-4 (enzyme)
chain: [in this place about 600 residues]GGSSGGKVTYTSQEDLVEKKCLAKKYTHLSCDKVFCQPWQRCIEGTCVCKLPYQCPKNGTAVCATNRRSFPTYCQQKSLECLHPGTKFLNNGTCTAEGKFSVSLKHGNTDSEGIVEVKLVDQDKTMFICKSSWSMREANVACLDLGFQQGADTQRRFKLSDLSINSTECLHVHCRGLETSLAECTFTKRRTMGYQDFADVVCYTQKADSPMDDFFQCVNGKYISQMKACDGINDCGDQSDELCCKACQGKGFHCKSGVCIPSQYQCNGEVDCITGEDEVGCAGFASVTQEETEILTADMDAERRRIKSLLPKLSCGVKNRMHIRRKRIVGGKRAQLGDLPWQVAIKDASGITCGGIYIGGCWILTAAHCLRASKTHRYQIWTTVVDWIHPDLKRIVIEYVDRIIFHENYNAGTYQNDIALIEMKKDGNKKDCELPRSIPACVPWSPYLFQPNDTCIVSGWGREKDNERVFSLQWGEVKLISNCSKFYGNRFYEKEMECAGTYDGSIDACKGDSGGPLVCMDANNVTYVWGVVSWGENCGKPEFPGVYTKVANYFDWISYHVGRPFISQYNVGGSSGGSSGGRPCGHPGDTPFGTFTLTGGNVFEYGVKAVYTCNEGYQLLGEINYRECDTDGWTNDIPICEVVKCLPVTAPENGKIVSSAMEPDREYHFGQAVRFVCNSGYKIEGDEEMHCSDDGFWSKEKPKCVEISCKSPDVINGSPISQKIIYKENERFQYKCNMGYEYSERGDAVCTESGWRPLPSCEE
C4b Screen Ref Fold (fold of CFI-HSA wild type) [1]: 1.32
iC3b Screen Ref Fold (fold of CFI-HSA wild type) [2]: -0.01

B4: CFI-HSA WT; … (SEQ ID NO: 26); CCP_1-4 (enzyme)
chain: [in this place about 600 residues]GGSSGGKVTYTSQEDLVEKKCLAKKYTHLSCDKVFCQPWQRCIEGTCVCKLPYQCPKNGTAVCATNRRSFPTYCQQKSLECLHPGTKFLNNGTCTAEGKFSVSLKHGNTDSEGIVEVKLVDQDKTMFICKSSWSMREANVACLDLGFQQGADTQRRFKLSDLSINSTECLHVHCRGLETSLAECTFTKRRTMGYQDFADVVCYTQKADSPMDDFFQCVNGKYISQMKACDGINDCGDQSDELCCKACQGKGFHCKSGVCIPSQYQCNGEVDCITGEDEVGCAGFASVTQEETEILTADMDAERRRIKSLLPKLSCGVKNRMHIRRKRIVGGKRAQLGDLPWQVAIKDASGITCGGIYIGGCWILTAAHCLRASKTHRYQIWTTVVDWIHPDLKRIVIEYVDRIIFHENYNAGTYQNDIALIEMKKDGNKKDCELPRSIPACVPWSPYLFQPNDTCIVSGWGREKDNERVFSLQWGEVKLISNCSKFYGNRFYEKEMECAGTYDGSIDACKGDSGGPLVCMDANNVTYVWGVVSWGENCGKPEFPGVYTKVANYFDWISYHVGRPFISQYNVGGSSGGSSGGEDCNELPPRRNTEILTGSWSDQTYPEGTQAIYKCRPGYRSLGNVIMVCRKGEWVALNPLRKCQKRPCGHPGDTPFGTFTLTGGNVFEYGVKAVYTCNEGYQLLGEINYRECDTDGWTNDIPICEVVKCLPVTAPENGKIVSSAMEPDREYHFGQAVRFVCNSGYKIEGDEEMHCSDDGFWSKEKPKCVEISCKSPDVINGSPISQKIIYKENERFQYKCNMGYEYSERGDAVCTESGWRPLPSCEE
C4b Screen Ref Fold (fold of CFI-HSA wild type) [1]: 0.8
iC3b Screen Ref Fold (fold of CFI-HSA wild type) [2]: 0.01

B6: CFI-HSA Y408L; N531G; E457G; … (SEQ ID NO: 26); CCP_1-4 (enzyme)
chain: [in this place about 600 residues]GGSSGGKVTYTSQEDLVEKKCLAKKYTHLSCDKVFCQPWQRCIEGTCVCKLPYQCPKNGTAVCATNRRSFPTYCQQKSLECLHPGTKFLNNGTCTAEGKFSVSLKHGNTDSEGIVEVKLVDQDKTMFICKSSWSMREANVACLDLGFQQGADTQRRFKLSDLSINSTECLHVHCRGLETSLAECTFTKRRTMGYQDFADVVCYTQKADSPMDDFFQCVNGKYISQMKACDGINDCGDQSDELCCKACQGKGFHCKSGVCIPSQYQCNGEVDCITGEDEVGCAGFASVTQEETEILTADMDAERRRIKSLLPKLSCGVKNRMHIRRKRIVGGKRAQLGDLPWQVAIKDASGITCGGIYIGGCWILTAAHCLRASKTHRYQIWTTVVDWIHPDLKRIVIEYVDRIIFHENYNAGTLQNDIALIEMKKDGNKKDCELPRSIPACVPWSPYLFQPNDTCIVSGWGRGKDNERVFSLQWGEVKLISNCSKFYGNRFYEKEMECAGTYDGSIDACKGDSGGPLVCMDANNVTYVWGVVSWGEGCGKPEFPGVYTKVANYFDWISYHVGRPFISQYNVGGSSGGSSGGEDCNELPPRRNTEILTGSWSDQTYPEGTQAIYKCRPGYRSLGNVIMVCRKGEWVALNPLRKCQKRPCGHPGDTPFGTFTLTGGNVFEYGVKAVYTCNEGYQLLGEINYRECDTDGWTNDIPICEVVKCLPVTAPENGKIVSSAMEPDREYHFGQAVRFVCNSGYKIEGDEEMHCSDDGFWSKEKPKCVEISCKSPDVINGSPISQKIIYKENERFQYKCNMGYEYSERGDAVCTESGWRPLPSCEE
C4b Screen Ref Fold (fold of CFI-HSA wild type) [1]: 3.61
iC3b Screen Ref Fold (fold of CFI-HSA wild type) [2]: 0.09

B7: CFI-HSA Y408L; N531G; E457G; E461Q; R462K; F464Y; … (SEQ ID NO: 26); CCP_1-4 (enzyme)
chain: [in this place about 600 residues]GGSSGGKVTYTSQEDLVEKKCLAKKYTHLSCDKVFCQPWQRCIEGTCVCKLPYQCPKNGTAVCATNRRSFPTYCQQKSLECLHPGTKFLNNGTCTAEGKFSVSLKHGNTDSEGIVEVKLVDQDKTMFICKSSWSMREANVACLDLGFQQGADTQRRFKLSDLSINSTECLHVHCRGLETSLAECTFTKRRTMGYQDFADVVCYTQKADSPMDDFFQCVNGKYISQMKACDGINDCGDQSDELCCKACQGKGFHCKSGVCIPSQYQCNGEVDCITGEDEVGCAGFASVTQEETEILTADMDAERRRIKSLLPKLSCGVKNRMHIRRKRIVGGKRAQLGDLPWQVAIKDASGITCGGIYIGGCWILTAAHCLRASKTHRYQIWTTVVDWIHPDLKRIVIEYVDRIIFHENYNAGTLQNDIALIEMKKDGNKKDCELPRSIPACVPWSPYLFQPNDTCIVSGWGRGKDNQKVYSLQWGEVKLISNCSKFYGNRFYEKEMECAGTYDGSIDACKGDSGGPLVCMDANNVTYVWGVVSWGEGCGKPEFPGVYTKVANYFDWISYHVGRPFISQYNVGGSSGGSSGGEDCNELPPRRNTEILTGSWSDQTYPEGTQAIYKCRPGYRSLGNVIMVCRKGEWVALNPLRKCQKRPCGHPGDTPFGTFTLTGGNVFEYGVKAVYTCNEGYQLLGEINYRECDTDGWTNDIPICEVVKCLPVTAPENGKIVSSAMEPDREYHFGQAVRFVCNSGYKIEGDEEMHCSDDGFWSKEKPKCVEISCKSPDVINGSPISQKIIYKENERFQYKCNMGYEYSERGDAVCTESGWRPLPSCEE
C4b Screen Ref Fold (fold of CFI-HSA wild type) [1]: 1.76
iC3b Screen Ref Fold (fold of CFI-HSA wild type) [2]: 0.09

Now from value to binder:

C4b Screen Ref Fold (fold vs CFI-HSA wild type) [3]: 0.08
iC3b Screen Ref Fold (fold vs CFI-HSA wild type) [2]: 0.03
B2: CFI-HSA variant 456-… (SEQ ID NO: 9)-465 → … (SEQ ID NO: 10) (enzyme)
chain: [in this place about 600 residues]GGSSGGKVTYTSQEDLVEKKCLAKKYTHLSCDKVFCQPWQRCIEGTCVCKLPYQCPKNGTAVCATNRRSFPTYCQQKSLECLHPGTKFLNNGTCTAEGKFSVSLKHGNTDSEGIVEVKLVDQDKTMFICKSSWSMREANVACLDLGFQQGADTQRRFKLSDLSINSTECLHVHCRGLETSLAECTFTKRRTMGYQDFADVVCYTQKADSPMDDFFQCVNGKYISQMKACDGINDCGDQSDELCCKACQGKGFHCKSGVCIPSQYQCNGEVDCITGEDEVGCAGFASVTQEETEILTADMDAERRRIKSLLPKLSCGVKNRMHIRRKRIVGGKRAQLGDLPWQVAIKDASGITCGGIYIGGCWILTAAHCLRASKTHRYQIWTTVVDWIHPDLKRIVIEYVDRIIFHENYNAGTYQNDIALIEMKKDGNKKDCELPRSIPACVPWSPYLFQPNDTCIVSGWGNTASSGADYPDELQWGEVKLISNCSKFYGNRFYEKEMECAGTYDGSIDACKGDSGGPLVCMDANNVTYVWGVVSWGENCGKPEFPGVYTKVANYFDWISYHVGRPFISQYNV

C4b Screen Ref Fold (fold vs CFI-HSA wild type) [3]: 0.15
iC3b Screen Ref Fold (fold vs CFI-HSA wild type) [2]: -0.02
B3: CFI-HSA ΔC-term (Δ557-… (SEQ ID NO: 27)-565) (enzyme)
chain: [in this place about 600 residues]GGSSGGKVTYTSQEDLVEKKCLAKKYTHLSCDKVFCQPWQRCIEGTCVCKLPYQCPKNGTAVCATNRRSFPTYCQQKSLECLHPGTKFLNNGTCTAEGKFSVSLKHGNTDSEGIVEVKLVDQDKTMFICKSSWSMREANVACLDLGFQQGADTQRRFKLSDLSINSTECLHVHCRGLETSLAECTFTKRRTMGYQDFADVVCYTQKADSPMDDFFQCVNGKYISQMKACDGINDCGDQSDELCCKACQGKGFHCKSGVCIPSQYQCNGEVDCITGEDEVGCAGFASVTQEETEILTADMDAERRRIKSLLPKLSCGVKNRMHIRRKRIVGGKRAQLGDLPWQVAIKDASGITCGGIYIGGCWILTAAHCLRASKTHRYQIWTTVVDWIHPDLKRIVIEYVDRIIFHENYNAGTYQNDIALIEMKKDGNKKDCELPRSIPACVPWSPYLFQPNDTCIVSGWGREKDNERVFSLQWGEVKLISNCSKFYGNRFYEKEMECAGTYDGSIDACKGDSGGPLVCMDANNVTYVWGVVSWGENCGKPEFPGVYTKVANYFDWISYHVG

C4b Screen Ref Fold (fold of CFI-HSA wild type) [1]: 2.83
iC3b Screen Ref Fold (fold of CFI-HSA wild type) [2]: 0.06
B5: CFI-HSA Y408L; N531G; … (SEQ ID NO: 26); CCP_1-4 (enzyme)
chain: [in this place about 600 residues]GGSSGGKVTYTSQEDLVEKKCLAKKYTHLSCDKVFCQPWQRCIEGTCVCKLPYQCPKNGTAVCATNRRSFPTYCQQKSLECLHPGTKFLNNGTCTAEGKFSVSLKHGNTDSEGIVEVKLVDQDKTMFICKSSWSMREANVACLDLGFQQGADTQRRFKLSDLSINSTECLHVHCRGLETSLAECTFTKRRTMGYQDFADVVCYTQKADSPMDDFFQCVNGKYISQMKACDGINDCGDQSDELCCKACQGKGFHCKSGVCIPSQYQCNGEVDCITGEDEVGCAGFASVTQEETEILTADMDAERRRIKSLLPKLSCGVKNRMHIRRKRIVGGKRAQLGDLPWQVAIKDASGITCGGIYIGGCWILTAAHCLRASKTHRYQIWTTVVDWIHPDLKRIVIEYVDRIIFHENYNAGTLQNDIALIEMKKDGNKKDCELPRSIPACVPWSPYLFQPNDTCIVSGWGREKDNERVFSLQWGEVKLISNCSKFYGNRFYEKEMECAGTYDGSIDACKGDSGGPLVCMDANNVTYVWGVVSWGEGCGKPEFPGVYTKVANYFDWISYHVGRPFISQYNVGGSSGGSSGGEDCNELPPRRNTEILTGSWSDQTYPEGTQAIYKCRPGYRSLGNVIMVCRKGEWVALNPLRKCQKRPCGHPGDTPFGTFTLTGGNVFEYGVKAVYTCNEGYQLLGEINYRECDTDGWTNDIPICEVVKCLPVTAPENGKIVSSAMEPDREYHFGQAVRFVCNSGYKIEGDEEMHCSDDGFWSKEKPKCVEISCKSPDVINGSPISQKIIYKENERFQYKCNMGYEYSERGDAVCTESGWRPLPSCEE
